Hit rate of the full screen: of about 310,000 compounds, about 2,200 (0.71%) showed an effect of 50% or more. Effects have a minus sign here. The list shows a part of the results.
The molecules below were run against human ether-à-go-go-related gene (hERG) potassium channel (human, UniProt Q12809) (assay: primary screen, population patch clamp on CHO cells stably expressing hERG).
Sequence of human ether-à-go-go-related gene (hERG) potassium channel (Q12809 whole entry, looked up): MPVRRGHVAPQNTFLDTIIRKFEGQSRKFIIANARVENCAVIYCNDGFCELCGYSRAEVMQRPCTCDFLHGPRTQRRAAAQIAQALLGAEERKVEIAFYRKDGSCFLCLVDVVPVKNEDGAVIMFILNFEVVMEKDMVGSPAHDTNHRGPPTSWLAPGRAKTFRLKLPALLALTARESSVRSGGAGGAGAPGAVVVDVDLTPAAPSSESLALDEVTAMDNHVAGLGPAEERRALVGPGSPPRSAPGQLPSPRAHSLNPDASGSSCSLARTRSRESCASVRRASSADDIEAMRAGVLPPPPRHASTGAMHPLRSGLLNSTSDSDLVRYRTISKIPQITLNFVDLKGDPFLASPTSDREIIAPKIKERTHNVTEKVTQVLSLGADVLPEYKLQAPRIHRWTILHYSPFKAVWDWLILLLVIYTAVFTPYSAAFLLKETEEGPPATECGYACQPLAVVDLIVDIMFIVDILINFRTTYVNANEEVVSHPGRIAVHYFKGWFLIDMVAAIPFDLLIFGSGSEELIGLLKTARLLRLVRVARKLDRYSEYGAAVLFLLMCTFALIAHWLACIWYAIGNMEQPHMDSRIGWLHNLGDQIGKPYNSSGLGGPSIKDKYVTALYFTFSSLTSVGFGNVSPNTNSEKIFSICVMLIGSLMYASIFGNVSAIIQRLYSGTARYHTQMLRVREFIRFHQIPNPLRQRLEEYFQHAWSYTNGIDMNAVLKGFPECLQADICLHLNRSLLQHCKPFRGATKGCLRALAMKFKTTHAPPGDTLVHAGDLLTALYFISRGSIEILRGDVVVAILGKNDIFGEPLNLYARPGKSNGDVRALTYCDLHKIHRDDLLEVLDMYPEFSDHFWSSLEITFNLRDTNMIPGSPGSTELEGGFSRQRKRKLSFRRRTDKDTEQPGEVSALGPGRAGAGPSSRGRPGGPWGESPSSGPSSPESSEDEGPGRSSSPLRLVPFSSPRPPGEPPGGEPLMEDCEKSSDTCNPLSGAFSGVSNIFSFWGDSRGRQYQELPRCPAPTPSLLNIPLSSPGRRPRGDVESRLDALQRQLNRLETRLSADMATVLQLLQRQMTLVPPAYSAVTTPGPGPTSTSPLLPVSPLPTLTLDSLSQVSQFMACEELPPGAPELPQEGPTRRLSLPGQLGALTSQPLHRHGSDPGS

Compared with `CCCc1nnc(NC(=O)CCCN2C(=O)c3ccccc3C2=O)s1`, `CCc1nnc(NS(=O)(=O)c2ccc(NS(=O)(=O)c3ccccc3)cc2)s1` is lower in “hERG current change (%, negative = inhibition) at 1uM” value: 9.34% for the first, 0.102% for the second.

Going from `COc1ccccc1NC(=O)CSc1nnc(Cc2cccn2C)n1-c1ccc(F)cc1` to `CCOC(=O)c1nnc(-c2ccccc2)nc1NCc1ccccc1`, the “hERG current change (%, negative = inhibition) at 1uM” value rises from -4.57% to -2.03%.

Compared with `Cc1cccc(/C=N/NC(=O)Cn2nnnc2N)n1`, `C=CCn1c(SCC(C)=O)nnc1-c1ccc2ncccc2c1` is lower in “hERG current change (%, negative = inhibition) at 1uM” value: 19.8% for the first, 15.6% for the second.

Compared with `Cc1ccc(S(=O)(=O)NCc2cn3c(C)csc3n2)cc1`, `Cc1ccc(S(=O)(=O)CC2CSc3nc(N)cc(=O)n32)cc1` (stereo not shown) is lower in “hERG current change (%, negative = inhibition) at 1uM” value: 8.67% for the first, 3.32% for the second.

Going from `Cc1cc(N2C(=O)CCC2=O)n(-c2ccccc2)n1` to `Cc1nn(CC(=O)NCCN2CCOCC2)c(=O)c2ccccc12`, the “hERG current change (%, negative = inhibition) at 1uM” value rises from 3.09% to 22.4%.

Compared with `O=C(NCCCN1CCOCC1)c1ccc(CNS(=O)(=O)c2ccc(F)cc2)cc1`, `O=C(COc1ccc(F)cc1)NCC1(N2CCOCC2)CCCCC1` is lower in “hERG current change (%, negative = inhibition) at 1uM” value: 15.2% for the first, -3.47% for the second.

Compared with `O=C(c1sc2cc(Cl)ccc2c1Cl)N1CCN(CCc2ccccn2)CC1`, `CCOC(=O)N1CCN(CCc2ccccc2)CC1` is higher in “hERG current change (%, negative = inhibition) at 1uM” value: -36.6% for the first, 3.28% for the second.

Compared with `Cc1csc2nc(COC(=O)c3cccc(N(C)C)c3)cc(=O)n12`, `CCOC(=O)c1ccc(NC(=O)c2nn(C)cc2Br)cc1` is higher in “hERG current change (%, negative = inhibition) at 1uM” value: -2.57% for the first, 10.4% for the second.

First: N#Cc1c(N)nc(N2CCCC2)c(C#N)c1-c1ccc(Cl)cc1
Second: CC(C(=O)N1CCCCC1)N1CCN(S(=O)(=O)c2ccc(Cl)cc2)CC1.O=C(O)C(=O)O (stereo not shown)
The “hERG current change (%, negative = inhibition) at 1uM” value of the first is lower: 4.22% for the first, 6.84% for the second.

Going from `O=C(Nc1ccc(O)c(C(=O)O)c1)Oc1ccccc1` to `COc1ccc(NC(=O)c2c(Cl)n(C)c3ccccc23)cc1`, the “hERG current change (%, negative = inhibition) at 1uM” value falls from 14.6% to 10.2%.

Compared with `CC(C)C(=O)Nc1cccc(C(=O)Nc2nnc(C(C)(C)C)s2)c1`, `CN(C)S(=O)(=O)c1cccc(NC(=O)c2ccc(OC(F)(F)F)cc2)c1` is lower in “hERG current change (%, negative = inhibition) at 1uM” value: -4.54% for the first, -8.11% for the second.

Compared with `COC(=O)C1=C(C)NC2=C(C(=O)CCC2)C1c1ccc(-c2ccsc2C(=O)OC)o1` (stereo not shown), `COc1cc2c(cc1OC)CN(C(=O)c1ccc(OC)c(S(=O)(=O)N3CCOCC3)c1)CC2` is lower in “hERG current change (%, negative = inhibition) at 1uM” value: 13.1% for the first, 7.1% for the second.

First: Cc1ccccc1C(=O)N1CCC(C(=O)N(CC(C)C)c2c(N)n(CC(C)C)c(=O)[nH]c2=O)CC1
Second: O=C(Nn1cc(C(=O)N2CCN(c3ccccc3F)CC2)c2ccccc2c1=O)c1cnccn1
The “hERG current change (%, negative = inhibition) at 1uM” value of the first is higher: 8.46% for the first, 6.91% for the second.

Going from `CC(C(=O)Nc1ccc(F)cc1Cl)N1CCN(S(=O)(=O)c2cccs2)CC1` (stereo not shown) to `COc1cccc(N2CCN(C(=O)c3cccnc3)CC2)c1`, the “hERG current change (%, negative = inhibition) at 1uM” value rises from 0.389% to 9.47%.

First: CC(C)[C@H](NC(=O)c1ccc(Br)cc1)C(=O)NC1CCCCC1
Second: O=C(NCc1cccnc1)/C(=C/c1ccccc1)NC(=O)c1ccccc1
The “hERG current change (%, negative = inhibition) at 1uM” value of the first is higher: 11.7% for the first, -23.3% for the second.

Compared with `O=C(Nc1ccc(Cc2ccncc2)cc1)c1ccc([N+](=O)[O-])o1`, `Cc1onc(-c2ccccc2)c1C(=O)N/N=C/c1ccc([N+](=O)[O-])c(O)c1` is higher in “hERG current change (%, negative = inhibition) at 1uM” value: -1.3% for the first, 7.51% for the second.

Compared with `CC(C)Cc1nc(SCC(=O)N2CCCC2)c2c(=O)n(C)c(=O)n(C)c2n1`, `CC(C)Cn1c(-c2csc3c2CCCC3)n[nH]c1=S` is higher in “hERG current change (%, negative = inhibition) at 1uM” value: 4.33% for the first, 7.94% for the second.

Going from `CSc1ncccc1C(=O)OCC(=O)c1cc2ccccc2o1` to `O=c1cc(-c2ccc(O)c(O)c2)oc2c1ccc1ccccc12`, the “hERG current change (%, negative = inhibition) at 1uM” value rises from 9.85% to 12.5%.

Compared with `O=C(Cn1ccc(NC(=O)OCc2ccccc2)nc1=O)NCCc1ccccn1`, `O=C(C1CCN(S(=O)(=O)Cc2ccccc2)CC1)N1CCN(c2ncccn2)CC1` is lower in “hERG current change (%, negative = inhibition) at 1uM” value: 9.78% for the first, 7.38% for the second.

First: COC(=O)c1nnn(-c2nonc2N)c1CSc1nnc(C)s1
Second: Cc1c(-c2ccnc3cc(C(=O)O)nn23)cnn1C
The “hERG current change (%, negative = inhibition) at 1uM” value of the first is lower: 5.18% for the first, 8.16% for the second.

First: COC(=O)[C@@]1(Cc2ccc(F)cc2)[C@H]2c3cc(C(=O)N4CCCC4)n(CCc4ccc(O)c(O)c4)c3C[C@H]2CN1C(=O)c1ccccc1
Second: Cc1noc(NC(=O)c2ccccc2C(F)(F)F)c1C#N
The “hERG current change (%, negative = inhibition) at 1uM” value of the first is higher: 3.19% for the first, -8.8% for the second.

In the case of `S=c1[nH]nc(-c2ccncc2)n1Cc1ccco1`, the “hERG current change (%, negative = inhibition) at 1uM” value is reported as 14.1%.
